# This is one part of the list.
# B1: Epa1 (Candida glabrata) (protein)
# chain: MGSSHHHHHHSSGLVPRGSHMTSSNDISLASKDPTTFPLGCSPDITTPKKGLSMELYSYDFRKKGSYPCWDAAYLDPNYPRTGYKSHRLLAKVDGVTGNINFYYHATKGCTPQLGHLPASYNYPKPLTMTNFTMLLYGYFRPKVTGFHTFTISADDLLFVNFGAGNAFDCCRRDSSADHFGNYQAYAIWGSKTAKDELTVHLDAGVYYPIRLFYNNREYDGALSFTFKTESNENTVSDFSEYFFSLDDTEEGCPGLISYD
# Tests used:
# Assay in all cases: glycan array binding signal (z-score within array); higher = stronger binding
# Settings in all cases: glycan notation: IUPAC condensed, linker removed
# [1] = target: GlcNAc(b1-2)[GlcNAc(b1-4)]Man(a1-3)[GlcNAc(b1-4)][GlcNAc(b1-2)Man(a1-6)]Man(b1-4)GlcNAc(b1-4)GlcNAc
# Summary of the method: (§1)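 Glycan array binding is given as a within-array Z-score, which can be read as non-binding when negative. The arrays, 3228 of them, came from the Consortium for Functional Glycomics database and were retained only where the protein sequence was available. Z-scores were averaged across arrays of the same protein sequence at different concentrations or buffers and across linkers.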
# [2] = target: GlcNAc(b1-2)[GlcNAc(b1-4)]Man(a1-3)[GlcNAc(b1-4)][GlcNAc(b1-2)[GlcNAc(b1-6)]Man(a1-6)]Man(b1-4)GlcNAc(b1-4)GlcNAc
# Summary of the method: as §1
# [3] = target: GlcNAc(b1-2)[GlcNAc(b1-4)]Man(a1-3)[GlcNAc(b1-4)][GlcNAc(b1-2)[GlcNAc(b1-6)]Man(a1-6)]Man(b1-4)GlcNAc(b1-4)[Fuc(a1-6)]GlcNAc
# Summary of the method: as §1
# [4] = target: GlcNAc(b1-2)[GlcNAc(b1-6)]Man(a1-6)[GlcNAc(b1-2)Man(a1-3)]Man(b1-4)GlcNAc(b1-4)GlcNAc
# Summary of the method: as §1
# [5] = target: GlcNAc(b1-2)[GlcNAc(b1-6)]Man(a1-6)[GlcNAc(b1-2)Man(a1-3)]Man(b1-4)GlcNAc(b1-4)[Fuc(a1-6)]GlcNAc
# Summary of the method: as §1
# [6] = target: GlcNAc(b1-2)[GlcNAc(b1-6)]Man(a1-6)[GlcNAc(b1-4)][GlcNAc(b1-2)Man(a1-3)]Man(b1-4)GlcNAc(b1-4)GlcNAc
# Summary of the method: as §1
# GlcNAc(b1-3)Fuc = target: GlcNAc(b1-3)Fuc
# Summary of the method: as §1
# GlcNAc(b1-3)Gal = target: GlcNAc(b1-3)Gal
# Summary of the method: as §1
# [7] = target: GlcNAc(b1-3)Gal(b1-3)GalNAc
# Summary of the method: as §1
# GlcNAc(b1-3)Gal(b1-4)Glc = target: GlcNAc(b1-3)Gal(b1-4)Glc
# Summary of the method: as §1
# [8] = target: GlcNAc(b1-3)Gal(b1-4)GlcNAc
# Summary of the method: as §1
# [9] = target: GlcNAc(b1-3)Gal(b1-4)GlcNAc(b1-2)Man(a1-3)[GlcNAc(b1-3)Gal(b1-4)GlcNAc(b1-2)Man(a1-6)]Man(b1-4)GlcNAc(b1-4)GlcNAc
# Summary of the method: as §1
# [10] = target: GlcNAc(b1-3)Gal(b1-4)GlcNAc(b1-2)Man(a1-3)[GlcNAc(b1-3)Gal(b1-4)GlcNAc(b1-2)Man(a1-6)]Man(b1-4)GlcNAc(b1-4)[Fuc(a1-6)]GlcNAc
# Summary of the method: as §1
# [11] = target: GlcNAc(b1-3)Gal(b1-4)GlcNAc(b1-2)[GlcNAc(b1-3)Gal(b1-4)GlcNAc(b1-6)]Man(a1-6)[GlcNAc(b1-3)Gal(b1-4)GlcNAc(b1-2)Man(a1-3)]Man(b1-4)GlcNAc(b1-4)GlcNAc
# Summary of the method: as §1
# [12] = target: GlcNAc(b1-3)Gal(b1-4)GlcNAc(b1-3)Gal(b1-4)GlcNAc
# Summary of the method: as §1
# [13] = target: GlcNAc(b1-3)Gal(b1-4)GlcNAc(b1-3)Gal(b1-4)GlcNAc(b1-2)Man(a1-3)[GlcNAc(b1-3)Gal(b1-4)GlcNAc(b1-3)Gal(b1-4)GlcNAc(b1-2)Man(a1-6)]Man(b1-4)GlcNAc(b1-4)GlcNAc
# Summary of the method: as §1
# [14] = target: GlcNAc(b1-3)Gal(b1-4)GlcNAc(b1-3)Gal(b1-4)GlcNAc(b1-2)Man(a1-3)[GlcNAc(b1-3)Gal(b1-4)GlcNAc(b1-3)Gal(b1-4)GlcNAc(b1-2)Man(a1-6)]Man(b1-4)GlcNAc(b1-4)[Fuc(a1-6)]GlcNAc
# Summary of the method: as §1
# [15] = target: GlcNAc(b1-3)Gal(b1-4)GlcNAc(b1-3)Gal(b1-4)GlcNAc(b1-2)[GlcNAc(b1-3)Gal(b1-4)GlcNAc(b1-3)Gal(b1-4)GlcNAc(b1-6)]Man(a1-6)[GlcNAc(b1-3)Gal(b1-4)GlcNAc(b1-3)Gal(b1-4)GlcNAc(b1-2)Man(a1-3)]Man(b1-4)GlcNAc(b1-4)[Fuc(a1-6)]GlcNAc
# Summary of the method: as §1
# [16] = target: GlcNAc(b1-3)Gal(b1-4)GlcNAc(b1-3)Gal(b1-4)GlcNAc(b1-3)Gal(b1-4)GlcNAc(b1-2)Man(a1-3)[GlcNAc(b1-3)Gal(b1-4)GlcNAc(b1-3)Gal(b1-4)GlcNAc(b1-3)Gal(b1-4)GlcNAc(b1-2)Man(a1-6)]Man(b1-4)GlcNAc(b1-4)GlcNAc
# Summary of the method: as §1
# [17] = target: GlcNAc(b1-3)Gal(b1-4)GlcNAc(b1-3)Gal(b1-4)GlcNAc(b1-3)Gal(b1-4)GlcNAc(b1-2)Man(a1-3)[GlcNAc(b1-3)Gal(b1-4)GlcNAc(b1-3)Gal(b1-4)GlcNAc(b1-3)Gal(b1-4)GlcNAc(b1-2)Man(a1-6)]Man(b1-4)GlcNAc(b1-4)[Fuc(a1-6)]GlcNAc
# Summary of the method: as §1
# [18] = target: GlcNAc(b1-3)Gal(b1-4)GlcNAc(b1-3)Gal(b1-4)GlcNAc(b1-3)Gal(b1-4)GlcNAc(b1-2)[GlcNAc(b1-3)Gal(b1-4)GlcNAc(b1-3)Gal(b1-4)GlcNAc(b1-3)Gal(b1-4)GlcNAc(b1-6)]Man(a1-6)[GlcNAc(b1-3)Gal(b1-4)GlcNAc(b1-3)Gal(b1-4)GlcNAc(b1-3)Gal(b1-4)GlcNAc(b1-2)Man(a1-3)]Man(b1-4)GlcNAc(b1-4)[Fuc(a1-6)]GlcNAc
# Summary of the method: as §1
# [19] = target: GlcNAc(b1-3)Gal(b1-4)GlcNAc(b1-3)Gal(b1-4)GlcNAc(b1-3)Gal(b1-4)GlcNAc(b1-3)Gal(b1-4)GlcNAc(b1-2)Man(a1-3)[GlcNAc(b1-3)Gal(b1-4)GlcNAc(b1-3)Gal(b1-4)GlcNAc(b1-3)Gal(b1-4)GlcNAc(b1-3)Gal(b1-4)GlcNAc(b1-2)Man(a1-6)]Man(b1-4)GlcNAc(b1-4)GlcNAc
# Summary of the method: as §1
# [20] = target: GlcNAc(b1-3)Gal(b1-4)GlcNAc(b1-3)Gal(b1-4)GlcNAc(b1-3)Gal(b1-4)GlcNAc(b1-3)Gal(b1-4)GlcNAc(b1-2)Man(a1-3)[GlcNAc(b1-3)Gal(b1-4)GlcNAc(b1-3)Gal(b1-4)GlcNAc(b1-3)Gal(b1-4)GlcNAc(b1-3)Gal(b1-4)GlcNAc(b1-2)Man(a1-6)]Man(b1-4)GlcNAc(b1-4)[Fuc(a1-6)]GlcNAc
# Summary of the method: as §1
# [21] = target: GlcNAc(b1-3)Gal(b1-4)GlcNAc(b1-3)Gal(b1-4)GlcNAc(b1-3)Gal(b1-4)GlcNAc(b1-3)Gal(b1-4)GlcNAc(b1-2)[GlcNAc(b1-3)Gal(b1-4)GlcNAc(b1-3)Gal(b1-4)GlcNAc(b1-3)Gal(b1-4)GlcNAc(b1-3)Gal(b1-4)GlcNAc(b1-6)]Man(a1-6)[GlcNAc(b1-3)Gal(b1-4)GlcNAc(b1-3)Gal(b1-4)GlcNAc(b1-3)Gal(b1-4)GlcNAc(b1-3)Gal(b1-4)GlcNAc(b1-2)Man(a1-3)]Man(b1-4)GlcNAc(b1-4)[Fuc(a1-6)]GlcNAc
# Summary of the method: as §1
# [22] = target: GlcNAc(b1-3)Gal(b1-4)GlcNAc(b1-3)Gal(b1-4)GlcNAc(b1-3)GalNAc
# Summary of the method: as §1
# [23] = target: GlcNAc(b1-3)Gal(b1-4)GlcNAc(b1-3)GalNAc
# Summary of the method: as §1
# [24] = target: GlcNAc(b1-3)Gal(b1-4)GlcNAc(b1-3)[GlcNAc(b1-3)Gal(b1-4)GlcNAc(b1-3)]GalNAc
# Summary of the method: as §1
# [25] = target: GlcNAc(b1-3)Gal(b1-4)GlcNAc(b1-6)[Gal(b1-3)]GalNAc
# Summary of the method: as §1
# [26] = target: GlcNAc(b1-3)Gal(b1-4)GlcNAc(b1-6)[GlcNAc(b1-3)Gal(b1-3)]GalNAc
# Summary of the method: as §1
# [27] = target: GlcNAc(b1-3)Gal(b1-4)GlcNAc(b1-6)[GlcNAc(b1-3)]Gal(b1-4)GlcNAc
# Summary of the method: as §1
# GlcNAc(b1-3)GalNAc = target: GlcNAc(b1-3)GalNAc
# Summary of the method: as §1
# GlcNAc(b1-3)Man = target: GlcNAc(b1-3)Man
# Summary of the method: as §1
# [28] = target: GlcNAc(b1-3)[GlcNAc(b1-4)][GlcNAc(b1-6)]GlcNAc
# Summary of the method: as §1
# [29] = target: GlcNAc(b1-3)[GlcNAc(b1-6)]Gal(b1-4)GlcNAc
# Summary of the method: as §1
# [30] = target: GlcNAc(b1-3)[GlcNAc(b1-6)]GalNAc
# Summary of the method: as §1
# [31] = target: GlcNAc(b1-4)Gal(b1-4)GlcNAc
# Summary of the method: as §1
# GlcNAc(b1-4)GlcNAc = target: GlcNAc(b1-4)GlcNAc
# Summary of the method: as §1
# [32] = target: GlcNAc(b1-4)GlcNAc(b1-4)GlcNAc
# Summary of the method: as §1
binder,measurement,setting,value
B1,glycan array binding signal (z-score),[1],-0.293
same,glycan array binding signal (z-score),[2],-0.34
same,glycan array binding signal (z-score),[3],-0.278
same,glycan array binding signal (z-score),[4],-0.318
same,glycan array binding signal (z-score),[5],-0.299
same,glycan array binding signal (z-score),[6],-0.351
same,glycan array binding signal (z-score),GlcNAc(b1-3)Fuc,-0.261
same,glycan array binding signal (z-score),GlcNAc(b1-3)Gal,-0.321
same,glycan array binding signal (z-score),[7],-0.246
same,glycan array binding signal (z-score),GlcNAc(b1-3)Gal(b1-4)Glc,-0.303
same,glycan array binding signal (z-score),[8],-0.309
same,glycan array binding signal (z-score),[9],-0.327
same,glycan array binding signal (z-score),[10],-0.256
same,glycan array binding signal (z-score),[11],-0.267
same,glycan array binding signal (z-score),[12],-0.287
same,glycan array binding signal (z-score),[13],-0.256
same,glycan array binding signal (z-score),[14],-0.245
same,glycan array binding signal (z-score),[15],-0.206
same,glycan array binding signal (z-score),[16],-0.298
same,glycan array binding signal (z-score),[17],-0.268
same,glycan array binding signal (z-score),[18],-0.26
same,glycan array binding signal (z-score),[19],-0.286
same,glycan array binding signal (z-score),[20],-0.177
same,glycan array binding signal (z-score),[21],-0.207
same,glycan array binding signal (z-score),[22],-0.32
same,glycan array binding signal (z-score),[23],-0.289
same,glycan array binding signal (z-score),[24],-0.18
same,glycan array binding signal (z-score),[25],1.03
same,glycan array binding signal (z-score),[26],-0.264
same,glycan array binding signal (z-score),[27],-0.31
same,glycan array binding signal (z-score),GlcNAc(b1-3)GalNAc,-0.297
same,glycan array binding signal (z-score),GlcNAc(b1-3)Man,-0.267
same,glycan array binding signal (z-score),[28],-0.326
same,glycan array binding signal (z-score),[29],-0.269
same,glycan array binding signal (z-score),[30],-0.296
same,glycan array binding signal (z-score),[31],-0.332
same,glycan array binding signal (z-score),GlcNAc(b1-4)GlcNAc,-0.336
same,glycan array binding signal (z-score),[32],-0.365

# Reference: the supplement of paper PMC8728848
